This experiment has as its system primary human hepatic stellate cells (donor 1). Nature of the experiment: scaled lipid accumulation score (0 = DMSO-like, 1 = nortriptyline-like); higher = stronger HSC inactivation (lipid re-accumulation), active = hit call of the paper. The following applies: 48 h.
Setting [1] is: library stock concentration: 3.33 mM.
Setting [2] is: library stock concentration: 10 mM.
The mark [3] stands for this setting: library stock concentration: 8.1 mM.
The mark [4] stands for this setting: library stock concentration: 1 mM.
The mark [5] stands for this setting: library stock concentration: 400 uM.
[6] abbreviates: library stock concentration: 2 mM.
Setting [7] is: library stock concentration: 80 uM.

Molecules are shown by their SMILES. Where “and” joins values, the source holds several entries; their conditions need not be identical. Equal entries are not always repeated. Structures can show the parent of a compound that is named as a salt. In all, about 5,800 compounds went through this assay and about 620 (11%) showed activity.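 Rule for the calls: active = score above a cut-off or among the top three wells of a plate; in these data no inactive exceeds 0.85.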 This is a selection; strong and weak results do not stand in their true shares.

Turning to `CC(=O)OCC(=O)[C@@]12OC(C)(C)O[C@@H]1C[C@H]1[C@@H]3C[C@H](F)C4=CC(=O)C=C[C@]4(C)[C@@]3(F)[C@@H](O)C[C@@]12C` [Fluocinonide], the “scaled lipid accumulation score” value is inactive: ≤ 0. For the same molecule, the “scaled lipid accumulation score” value under setting [1] is inactive: ≤ 0. For the same molecule, where the note is “library stock concentration: 4 mM”, the “scaled lipid accumulation score” value was inactive: ≤ -0.001. In addition, the “scaled lipid accumulation score” value under setting [2] was inactive: ≤ 0.
As for `c1ccc2c(CC3=NCCN3)cccc2c1` [Naphazoline HCl], the “scaled lipid accumulation score” value is inactive: ≤ 0 under setting [1], inactive: 0.147 (library stock concentration: 9.5 mM) and inactive: ≤ 0 under setting [2].
As for `c1ccc2c(CC3=NCCN3)cccc2c1` [Naphazoline hydrochloride], the “scaled lipid accumulation score” value is inactive: ≤ 0. Under setting [3], the “scaled lipid accumulation score” value was inactive: 0.057. Besides, the “scaled lipid accumulation score” value under setting [2] is inactive: ≤ 0 and inactive: ≤ -0.045.
Consider `COC(=O)C1=CO[C@@H](C)[C@H]2CN3CCc4c([nH]c5ccccc45)[C@@H]3C[C@H]12` [Ajmalicine hydrochloride], for which the “scaled lipid accumulation score” value is inactive: 0.17.
Consider `CC/C=C\C/C=C\C/C=C\CCCCCCCCCCCC(=O)O` [Docosatrienoic acid (22:3 n-3)], for which the “scaled lipid accumulation score” value under setting [4] was inactive: ≤ -0.021.
Consider `CCCCCCCCCC(=O)N[C@H](CN1CCOCC1)[C@H](O)c1ccccc1` (racemic) [DL-threo-PDMP (hydrochloride)], for which the “scaled lipid accumulation score” value under setting [4] is inactive: 0.001.
Consider `C[C@@H](O[C@H]1OCCN(Cc2nn(P(=O)(O)O)c(=O)[nH]2)[C@H]1c1ccc(F)cc1)c1cc(C(F)(F)F)cc(C(F)(F)F)c1` [Fosaprepitant dimeglumine salt], for which the “scaled lipid accumulation score” value is inactive: 0.056 under setting [1] and inactive: 0.01 under setting [2].
As for `COc1cc2nccc(Oc3ccc(NC(=O)NC4CC4)c(Cl)c3)c2cc1C(N)=O`, the “scaled lipid accumulation score” value was inactive: 0.067 under setting [5], inactive: ≤ -0.005 under setting [6] and inactive: ≤ -0.005 under setting [2].
As to `COc1cc2nccc(Oc3ccc(NC(=O)NC4CC4)c(Cl)c3)c2cc1C(N)=O` [Lenvatinib (E7080)], the “scaled lipid accumulation score” value under setting [1] was inactive: 0.055 and the “scaled lipid accumulation score” value under setting [2] is inactive: ≤ 0.
For the molecule `CCn1c(=O)[nH]c2cc(Cl)c(Cl)cc21`, the “scaled lipid accumulation score” value under setting [2] is inactive: 0.826 and inactive: 0.476.
On to `CC(C)(CO)c1cc2cc(NC(=O)C3(c4ccc5c(c4)OC(F)(F)O5)CC3)c(F)cc2n1C[C@@H](O)CO`, for which the “scaled lipid accumulation score” value is, setting by setting: under setting [1], inactive: ≤ 0; under setting [2], inactive: ≤ -0.001.
`CN1C(=O)CC[C@H]1c1cccnc1` [Cotinine (-)]: the “scaled lipid accumulation score” value is inactive: ≤ 0.
As to `CN1C(=O)CC[C@H]1c1cccnc1` [(-)-Cotinine], under setting [2], the “scaled lipid accumulation score” value is inactive: ≤ 0 and inactive: 0.057.
Regarding `CN1C(=O)CC[C@H]1c1cccnc1` [Cotinine], the “scaled lipid accumulation score” value under setting [2] is inactive: ≤ 0 and the “scaled lipid accumulation score” value (library stock concentration: 11.3 mM) was inactive: ≤ -0.001.
Regarding `Cc1c(CN2CCN(C(=O)[C@H](C)O)CC2)sc2c(N3CCOCC3)nc(-c3cnc(N)nc3)nc12`, the “scaled lipid accumulation score” value is, setting by setting: under setting [7], inactive: 0.079; under setting [5], inactive: ≤ -0.015; under setting [6], inactive: ≤ -0.016; under setting [1], inactive: ≤ 0; under setting [2], inactive: ≤ 0 and inactive: ≤ -0.016.
In the case of `COC(=O)c1ccc2c(c1)NC(=O)C2=C(Nc1ccc(N(C)C(=O)CN2CCN(C)CC2)cc1)c1ccccc1`, the “scaled lipid accumulation score” value under setting [2] is active: 0.976.
As for `Cc1cnc(-c2cc(N3CCN(C(=O)CCS(C)(=O)=O)CC3)ncc2Cl)c(C)c1`, the “scaled lipid accumulation score” value runs as follows: under setting [1], inactive: ≤ 0; under setting [2], inactive: ≤ 0.
On to `CN1CCc2c(c3ccccc3n2Cc2ccc(C(=O)NO)cc2)C1` [Tubastatin A HCl], for which the “scaled lipid accumulation score” value reads like this: under setting [1], inactive: ≤ 0; under setting [2], inactive: 0.218.
As to `CN1CCc2c(c3ccccc3n2Cc2ccc(C(=O)NO)cc2)C1` [Tubastatin A], the “scaled lipid accumulation score” value runs as follows: under setting [1], inactive: ≤ 0; under setting [2], inactive: ≤ 0.
`CC(=N)NCCCC[C@H](N)C(=O)O` [L-NIL hydrochloride]: the “scaled lipid accumulation score” value under setting [2] is inactive: 0.025.
With `CN(C)C(=O)c1ccc(S(=O)(=O)c2ccc(NC(=O)C(C)(O)C(F)(F)F)c(Cl)c2)cc1` (stereo unspecified), the “scaled lipid accumulation score” value is, setting by setting: under setting [1], inactive: ≤ -0.009; under setting [2], inactive: ≤ 0.
In the case of `CC[C@@H]1C(=O)OC[C@@H]1Cc1cncn1C` [Pilocarpine HCl], the “scaled lipid accumulation score” value by setting is: under setting [1], inactive: ≤ 0; (library stock concentration: 9.6 mM) inactive: ≤ -0.006; under setting [2], inactive: ≤ -0.001.
As for `CC[C@@H]1C(=O)OC[C@@H]1Cc1cncn1C` [Pilocarpine hydrochloride], the “scaled lipid accumulation score” value under setting [2] was inactive: 0.007.
As for `CC[C@@H]1C(=O)OC[C@@H]1Cc1cncn1C`, the “scaled lipid accumulation score” value under setting [2] is inactive: ≤ 0.
In the case of `CC[C@@H]1C(=O)OC[C@@H]1Cc1cncn1C` [Pilocarpine nitrate], the “scaled lipid accumulation score” value is inactive: ≤ 0. The “scaled lipid accumulation score” value under setting [2] was inactive: ≤ 0 and inactive: ≤ -0.055.
`CC[C@@H]1C(=O)OC[C@@H]1Cc1cncn1C` [(+)-Pilocarpine hydrochloride]: the “scaled lipid accumulation score” value under setting [2] was inactive: 0.136.
As to `Cc1c(NC(=O)c2cccnc2)c(=O)n(-c2ccccc2)n1C` [Nifenazone], the “scaled lipid accumulation score” value was inactive: ≤ 0. The “scaled lipid accumulation score” value under setting [2] was inactive: ≤ -0.027.
Take `O=C(/C=C/c1ccc(O)cc1)c1ccc(O)cc1O` [Isoliquiritigenin]: the “scaled lipid accumulation score” value by setting is: under setting [1], inactive: ≤ 0; under setting [2], inactive: 0.017 and inactive: 0.26.
As to `CS(=O)(=O)OCCCCOS(C)(=O)=O` [Busulfan], the “scaled lipid accumulation score” value is inactive: 0.013 under setting [1], inactive: 0.001 under setting [3] and inactive: ≤ 0 under setting [2].
`COC(=O)C1=C(C)NC(C)=C([N+](=O)[O-])[C@H]1c1ccccc1C(F)(F)F`: under setting [2], the “scaled lipid accumulation score” value was inactive: ≤ -0.005.
Turning to `CCCCC[C@@](C)(O)/C=C/[C@H]1C(=O)C[C@H](O)[C@@H]1C/C=C\CCCC(=O)O` [15(R)-15-methyl Prostaglandin D2], under setting [4], the “scaled lipid accumulation score” value was inactive: ≤ 0.
Take `CCCCC(C)(C)[C@H](O)/C=C/[C@H]1C=CC(=O)[C@@H]1CCCCCCC(=O)O` [16,16-dimethyl Prostaglandin A1]: the “scaled lipid accumulation score” value under setting [4] is inactive: ≤ 0.
As to `CCCCC/C=C\C/C=C\C/C=C\C/C=C\CCCC(=O)OC(COCCCCCCCCCCCCCCCC)COP(=O)([O-])OCC[N+](C)(C)C` (stereo unspecified) [Arachidonoyl PAF C-16], the “scaled lipid accumulation score” value under setting [4] is inactive: ≤ 0.
With `CC(O)Cn1cnc2c1c(=O)n(C)c(=O)n2C` (stereo unspecified) [Proxyphylline], the “scaled lipid accumulation score” value was inactive: ≤ 0.
As for `c1([C@]2(C(=O)OC)c3c(c4c(cccc4)[nH]3)CN(CC5C2)CC(CC)=C5)cc6c(N(C)[C@]7([H])[C@]6(CC8)[C@]([H])(N89)[C@@](CC)(C=CC9)[C@@H](OC(=O)C)[C@]7(O)C(=O)OC)cc1OC.C(=O)(O)[C@H](O)[C@@H](O)C(=O)O.C(=O)(O)[C@H](O)` (stereo partly specified) [Vinorelbine Tartrate], the “scaled lipid accumulation score” value runs as follows: under setting [1], active: 1.26; under setting [2], active: 0.863.
On to `CCC1(C)OC(=O)N(C)C1=O` (stereo unspecified), for which, under setting [2], the “scaled lipid accumulation score” value is inactive: ≤ 0.
The same measure, in the same setting: the figure for `NC(=O)CCCCn1ccc(NC(N)=NCC(F)(F)F)n1` is inactive: ≤ 0; for `N[C@@H](Cc1c[nH]c2ccccc12)C(=O)O` [Tryptophan] it is inactive: ≤ 0.
Take `N[C@@H](Cc1c[nH]c2ccccc12)C(=O)O` [L-Tryptophan]: the “scaled lipid accumulation score” value under setting [2] is inactive: ≤ 0.
In the case of `O=C(OOC(=O)c1ccccc1)c1ccccc1` [Benzoyl peroxide], the “scaled lipid accumulation score” value (library stock concentration: 8.3 mM) was inactive: ≤ 0.
For the molecule `Nc1cc(=O)[nH]c(N)n1` [2,4-Diamino-6-pyrimidinone], under setting [2], the “scaled lipid accumulation score” value is inactive: 0.233.
The same measure, in the same setting: the figure for `NC(=O)CCCCC1CCSS1` (stereo unspecified) is inactive: ≤ 0; for `Br.CN1CCC[C@@H]1Cc1c[nH]c2ccc(CCS(=O)(=O)c3ccccc3)cc12` [Eletriptan hydrobromide] it is active: 0.912.
With `CCCCCCCC/C=C\CCCCCCCC(N)=O` [Oleamide], the “scaled lipid accumulation score” value was inactive: ≤ 0 under setting [4] and inactive: ≤ 0 under setting [2].
For `CCCCCCCC/C=C\CCCCCCCC(N)=O` [9,10-Octadecenoamide], the “scaled lipid accumulation score” value under setting [4] is inactive: ≤ -0.021.
In the case of `C=C(C)[C@H]1CC=C(C)CC1`, the “scaled lipid accumulation score” value under setting [2] is inactive: ≤ 0.
Same read-out and setting: the result for `COC1(C2=NCCN2)COc2ccccc2O1` (stereo unspecified) reads inactive: ≤ 0 and inactive: ≤ -0.006.
`Cc1ncc(-c2ccnc(Nc3ccc(S(C)(=O)=O)cc3)n2)n1C(C)C`: the “scaled lipid accumulation score” value under setting [7] is inactive: 0.708; the “scaled lipid accumulation score” value under setting [5] is inactive: 0.763; the “scaled lipid accumulation score” value under setting [6] was inactive: 0.527; the “scaled lipid accumulation score” value under setting [1] is inactive: 0.078; the “scaled lipid accumulation score” value under setting [2] was inactive: 0.329 and inactive: 0.334.
Consider `NS(=O)(=O)c1cc2c(cc1C(F)(F)F)NCNS2(=O)=O` [Hydroflumethiazide], for which the “scaled lipid accumulation score” value is inactive: 0.014. Also, where the note is “library stock concentration: 6 mM”, the “scaled lipid accumulation score” value was inactive: ≤ -0.001. For the same molecule, the “scaled lipid accumulation score” value under setting [2] is inactive: ≤ 0.
Take `CC(C)NC[C@@H](O)COc1ccc(CC(N)=O)cc1` [(R)-(+)-Atenolol]: the “scaled lipid accumulation score” value was inactive: ≤ 0.
As for `OC[C@H]1O[C@@H](n2cnc3c(N[C@H]4CCC[C@@H]4O)ncnc32)[C@H](O)[C@@H]1O`, the “scaled lipid accumulation score” value under setting [2] was inactive: ≤ 0 and inactive: ≤ -0.006.
For the molecule `COc1ncnc(NS(=O)(=O)c2ccc(N)cc2)c1OC` [Sulfadoxine], the “scaled lipid accumulation score” value is inactive: ≤ 0. For the same molecule, the “scaled lipid accumulation score” value (library stock concentration: 6.4 mM) was inactive: ≤ 0 and inactive: 0.001.
On to `CC(=O)OCC(=O)[C@@]1(O)[C@H](C)C[C@H]2[C@@H]3CCC4=CC(=O)C=C[C@]4(C)[C@@]3(F)[C@@H](O)C[C@@]21C` [Dexamethasone acetate], for which the “scaled lipid accumulation score” value is inactive: 0.043. In addition, the “scaled lipid accumulation score” value under setting [2] is inactive: ≤ 0.
Consider `c1ccc(C(O[C@@H]2CCCN(CCc3ccc4c(c3)OCO4)C2)c2ccccc2)cc1` [Zamifenacin fumarate], for which the “scaled lipid accumulation score” value under setting [2] was inactive: 0.194.
Same read-out and setting: the figure for `COc1c(N2C[C@@H]3CCCN[C@@H]3C2)c(F)cc2c(=O)c(C(=O)O)cn(C3CC3)c12` [Moxifloxacin hydrochloride] is inactive: 0.069.
With `COc1c(N2C[C@@H]3CCCN[C@@H]3C2)c(F)cc2c(=O)c(C(=O)O)cn(C3CC3)c12` [Moxifloxacin HCl], the “scaled lipid accumulation score” value under setting [1] is inactive: ≤ 0 and the “scaled lipid accumulation score” value under setting [2] was inactive: ≤ 0.
For the molecule `COc1c(N2C[C@@H]3CCCN[C@@H]3C2)c(F)cc2c(=O)c(C(=O)O)cn(C3CC3)c12`, the “scaled lipid accumulation score” value under setting [2] is inactive: ≤ 0.
In the case of `CN1CCN(CC/C=C2\c3ccccc3Sc3ccc(S(=O)(=O)N(C)C)cc32)CC1` [Thiothixene], for the setting “library stock concentration: 4.5 mM”, the “scaled lipid accumulation score” value is active: 0.856.
On to `COc1ccc(C(=O)c2ccccc2)c(O)c1` [Oxybenzone], for which the “scaled lipid accumulation score” value was inactive: ≤ 0. Further, the “scaled lipid accumulation score” value (library stock concentration: 8.8 mM) is inactive: 0.019. For the same molecule, the “scaled lipid accumulation score” value under setting [2] was inactive: 0.015.
On to `CCCCCCCC(=O)CC[C@@H]1[C@@H](C/C=C\CCCC(=O)O)[C@@H](O)C[C@H]1O` [Unoprostone], for which the “scaled lipid accumulation score” value under setting [4] was inactive: ≤ 0.

The values above are taken from the supplement of paper PMC9135407.
